Out of some 310,000 compounds screened, about 14,000 (4.5%) showed an effect of 50% or more. The effect is printed as a negative number. This is one part of the list.
The molecules below were run against human ether-à-go-go-related gene (hERG) potassium channel (human, UniProt Q12809) (assay: primary screen, population patch clamp on CHO cells stably expressing hERG).
Chain of human ether-à-go-go-related gene (hERG) potassium channel (Q12809 whole entry, looked up): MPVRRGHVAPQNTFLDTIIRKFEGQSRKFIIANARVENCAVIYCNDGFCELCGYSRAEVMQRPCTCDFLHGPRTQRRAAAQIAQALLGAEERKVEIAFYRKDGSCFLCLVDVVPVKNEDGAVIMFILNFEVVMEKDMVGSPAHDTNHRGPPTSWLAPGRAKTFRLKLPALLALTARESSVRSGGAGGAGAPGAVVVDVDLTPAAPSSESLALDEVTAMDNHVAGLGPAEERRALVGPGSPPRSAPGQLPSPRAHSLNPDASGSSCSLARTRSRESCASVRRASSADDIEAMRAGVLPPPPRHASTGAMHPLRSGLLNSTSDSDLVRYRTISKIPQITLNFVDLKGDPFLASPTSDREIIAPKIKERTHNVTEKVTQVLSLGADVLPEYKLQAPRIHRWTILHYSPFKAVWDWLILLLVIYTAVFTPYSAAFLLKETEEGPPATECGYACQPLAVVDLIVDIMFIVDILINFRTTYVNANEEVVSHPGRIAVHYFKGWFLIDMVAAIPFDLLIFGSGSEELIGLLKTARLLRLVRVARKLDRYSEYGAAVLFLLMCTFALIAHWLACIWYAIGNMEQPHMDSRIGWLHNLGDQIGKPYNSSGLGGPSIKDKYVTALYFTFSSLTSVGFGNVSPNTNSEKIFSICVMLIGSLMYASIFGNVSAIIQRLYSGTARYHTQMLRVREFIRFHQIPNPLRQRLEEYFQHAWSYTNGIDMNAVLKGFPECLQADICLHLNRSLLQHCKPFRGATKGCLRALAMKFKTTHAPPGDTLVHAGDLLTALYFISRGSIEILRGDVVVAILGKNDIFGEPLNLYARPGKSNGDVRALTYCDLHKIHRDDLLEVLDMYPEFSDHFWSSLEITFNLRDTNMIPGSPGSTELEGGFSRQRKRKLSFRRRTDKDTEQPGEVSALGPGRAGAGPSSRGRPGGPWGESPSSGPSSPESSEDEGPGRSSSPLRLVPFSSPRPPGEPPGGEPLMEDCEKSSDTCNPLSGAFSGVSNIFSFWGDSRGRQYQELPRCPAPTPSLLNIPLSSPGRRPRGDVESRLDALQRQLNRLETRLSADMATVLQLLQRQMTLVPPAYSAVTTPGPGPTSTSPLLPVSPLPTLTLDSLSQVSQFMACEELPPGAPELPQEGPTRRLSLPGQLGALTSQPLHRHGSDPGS
In the case of `COc1ccc(CNC(=O)CCC(=O)N2CCN(S(=O)(=O)c3ccc(Cl)cc3)CC2)cc1`, the “hERG current change (%, negative = inhibition) at 10uM” value is reported as 22.3%.
In the case of `CN1CCc2c(sc(NC(=O)c3ccco3)c2C(N)=O)C1.Cl`, the “hERG current change (%, negative = inhibition) at 10uM” value is reported as -17%.
For `Cc1ccn2cc(-c3ccc4c(c3)NC(=O)CO4)nc2c1.Cl`, the “hERG current change (%, negative = inhibition) at 10uM” value was 2.71%.
For `O=C(O)C(=O)O.O=[N+]([O-])c1ccc(OCCN2CCNCC2)cc1`, the “hERG current change (%, negative = inhibition) at 10uM” value was -76%.
For `O=C(CSc1ncccn1)NC1CCCc2ccccc21` (stereo not shown), the “hERG current change (%, negative = inhibition) at 10uM” value was -1.51%.
With `Cc1ccc(S(=O)(=O)c2cc3ccccc3nc2N)cc1` the “hERG current change (%, negative = inhibition) at 10uM” value was 12.3%.
With `CCc1nccn1CCC(=O)NC1CCCc2c1cnn2-c1ccc(F)cc1F` (stereo not shown) the “hERG current change (%, negative = inhibition) at 10uM” value was 20.3%.
With `CC(OC(=O)CCN=C1NS(=O)(=O)c2ccccc21)C(=O)Nc1ccc(S(N)(=O)=O)cc1` (stereo not shown) the “hERG current change (%, negative = inhibition) at 10uM” value was -12.1%.
`Cc1cc(-c2nnc(CCC(=O)NC(c3ccccc3)c3ccccc3)o2)no1` was tested, and the “hERG current change (%, negative = inhibition) at 10uM” value was 26.5%.
`O=C(NCC(c1ccco1)N1CCCC1)c1cccc(NS(=O)(=O)c2ccc(Br)cc2)c1` (stereo not shown) was tested, and the “hERG current change (%, negative = inhibition) at 10uM” value was -27.5%.
`CCCC(CCC(=O)Nc1ccc(C(=O)OCC)cc1)C(=O)O` (stereo not shown) was tested, and the “hERG current change (%, negative = inhibition) at 10uM” value was 20.5%.
In the case of `O=S(=O)(Nc1ccccn1)c1cc(Cl)ccc1Cl`, the “hERG current change (%, negative = inhibition) at 10uM” value is reported as 9.22%.
`Cc1ccc(NC(=O)CCCc2ccccc2)nc1` was tested, and the “hERG current change (%, negative = inhibition) at 10uM” value was -7.9%.
`O=C(CSc1cccc[n+]1[O-])c1ccccc1Br` was tested, and the “hERG current change (%, negative = inhibition) at 10uM” value was 5.15%.
For `CCOC(=O)N1CCC(NC(=O)COc2cc(=O)n(C)c3ccccc23)CC1`, the “hERG current change (%, negative = inhibition) at 10uM” value was 6.6%.
With `O=C(NCc1ccncc1)C1CCN(C(=O)c2cccc(Cl)c2)CC1` the “hERG current change (%, negative = inhibition) at 10uM” value was -6.43%.
In the case of `Cc1cc(C)c(S(=O)(=O)c2ccccc2)c(=O)[nH]1`, the “hERG current change (%, negative = inhibition) at 10uM” value is reported as 20.6%.
`COc1ccccc1-n1c(SCC(=O)Nc2ccccc2F)nc2[nH]ncc2c1=O` was tested, and the “hERG current change (%, negative = inhibition) at 10uM” value was -32%.
`CC(=O)c1ccc(OCc2ccccc2)c(C)c1O` was tested, and the “hERG current change (%, negative = inhibition) at 10uM” value was 4.32%.
With `O/N=C/c1cccnc1Sc1ccccc1` the “hERG current change (%, negative = inhibition) at 10uM” value was -40.4%.
With `O=C(Nc1ccc(N2CCOCC2)cc1)c1cccc(S(=O)(=O)N2CCCC2)c1` the “hERG current change (%, negative = inhibition) at 10uM” value was 1.96%.
With `Cn1nc(C(C)(C)C)c([N+](=O)[O-])c1C(=O)N1CCCCCC1` the “hERG current change (%, negative = inhibition) at 10uM” value was 13.4%.
With `COCCN(C(=O)C1CC(=O)N(Cc2ccc(C)cc2)C1)c1c(N)n(CC(C)C)c(=O)[nH]c1=O` (stereo not shown) the “hERG current change (%, negative = inhibition) at 10uM” value was -6.25%.
`Cc1cccnc1Nc1nc(-c2ccc(O)c(O)c2)cs1` was tested, and the “hERG current change (%, negative = inhibition) at 10uM” value was 0.613%.
In the case of `CC(=O)Nc1ccc(S(=O)(=O)N2CCN(Cc3ccccn3)CC2)cc1.O=C(O)C(=O)O`, the “hERG current change (%, negative = inhibition) at 10uM” value is reported as -0.877%.
`C=CCOc1ccc(C(=O)NC2CCCCC2)cc1` was tested, and the “hERG current change (%, negative = inhibition) at 10uM” value was 5.59%.
For `Cc1cccc2cc(C(c3nnnn3C3CCCC3)N3CCOCC3)c(=O)[nH]c12` (stereo not shown), the “hERG current change (%, negative = inhibition) at 10uM” value was 3.62%.
For `C/C(=N\Nc1nc(N2CCOCC2)nc(N2CCOCC2)n1)c1cccs1`, the “hERG current change (%, negative = inhibition) at 10uM” value was 2.06%.
For `COCCn1c(C)cc(C(=O)CSc2nnc(-c3cccnc3)n2-c2ccccc2F)c1C`, the “hERG current change (%, negative = inhibition) at 10uM” value was 0.351%.
With `CSc1nsc(SC)c1NC(=O)Nc1ccccn1` the “hERG current change (%, negative = inhibition) at 10uM” value was -10%.
`CC(c1ccon1)N(C)Cc1cn(C)nc1-c1cccc(Cl)c1` (stereo not shown) was tested, and the “hERG current change (%, negative = inhibition) at 10uM” value was -6.35%.
With `COc1ccccc1NC(=O)C1=C(C)NC(=O)NC1c1cccs1` (stereo not shown) the “hERG current change (%, negative = inhibition) at 10uM” value was 8.54%.
In the case of `CC1(C)Cc2c(C#N)c(N)sc(=S)c2CS1`, the “hERG current change (%, negative = inhibition) at 10uM” value is reported as 5.54%.
With `Cc1ncoc1C(=O)Nc1ccc(Oc2ccccc2)cc1` the “hERG current change (%, negative = inhibition) at 10uM” value was -38.8%.
`O=C(CNC(=O)c1ccccc1)N/N=C/c1ccc([N+](=O)[O-])s1` was tested, and the “hERG current change (%, negative = inhibition) at 10uM” value was -11.1%.
In the case of `C=CCN1C(=O)NC(c2ccc(OC)cc2)(C(F)(F)F)S/C1=C(\C#N)c1nnc(N2CCOCC2)n1-c1ccccc1` (stereo not shown), the “hERG current change (%, negative = inhibition) at 10uM” value is reported as -62.4%.
For `Cc1ccc(C)c(NC(=O)c2c(Cl)nc3ccccn23)c1`, the “hERG current change (%, negative = inhibition) at 10uM” value was -0.767%.
For `Cc1cccc(C(=O)Nc2c(C(=O)N(C)C)cnn2-c2ccccc2)c1`, the “hERG current change (%, negative = inhibition) at 10uM” value was 7.81%.
In the case of `Cc1ccc(NS(=O)(=O)c2ccc(OCC(=O)Nc3cccc([N+](=O)[O-])c3)c(C)c2)cc1`, the “hERG current change (%, negative = inhibition) at 10uM” value is reported as -35.7%.
In the case of `CN(C)CCN=Cc1c(O)n(Cc2ccccc2)c(=O)c2ccccc12`, the “hERG current change (%, negative = inhibition) at 10uM” value is reported as -52.2%.
With `CC(C)Cn1c(N)c(C(=O)CSc2ccc3c(c2)OCCO3)c(=O)n(C)c1=O` the “hERG current change (%, negative = inhibition) at 10uM” value was 6.28%.
For `COC(=O)C1=C(C)N(Cc2ccccc2)C(=NCc2cc(OC)c(OC)c(OC)c2)N[C@H]1c1ccccc1`, the “hERG current change (%, negative = inhibition) at 10uM” value was -27.8%.
With `O=C(NCC(c1cccs1)N1CCOCC1)c1cn(-c2ccccc2)nc1-c1ccc(F)cc1` (stereo not shown) the “hERG current change (%, negative = inhibition) at 10uM” value was -1.67%.
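Also: peak tail current of the secondary pulse compared with the same well before compound.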
